Several values for one entry are separate records, joined by “and”; a condition that tells them apart may be missing. Equal entries are not always repeated. Hit rate of the full screen: of about 350,000 compounds, about 7,000 (2%) were called active. Inconclusive results, whose numbers are uncertain, are shown with a selection of clear calls. Rule as the data show it: active = activation above about 40%; inconclusive = no clear call, values can overlap the other calls; inactive = below that.
Assay: raisers of Bmi1 knock-in reporter signal – mouse ES cells, Bmi1 luciferase knock-in, single point, esBAF inhibitor project, primary screen (AID 602393);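 also: 0% = median of the plate's neutral control wells and 100% = double that signal; a rise in the Bmi1 reporter signal indicates esBAF inhibition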
Conditions: 24 h, at 12.5 µM, active compounds read high, 100% = twice the neutral-well signal

| SMILES | reporter increase |
| --- | --- |
| O=C(O)c1ccc(N/N=C/c2ccc(-c3cccc(Cl)c3)o2)cc1 | inconclusive: 6.95% |
| Cc1sc(NC(=O)C2CCCCC2)c(C#N)c1-c1ccccc1 | active: 92.8% |
| Oc1ccc(Cl)cc1C1=NNC(c2cccs2)C1 (stereo not given) | inconclusive: 43.3% |
| O=C(CNC(=O)c1ccccc1F)Nc1ccc2c(c1)CCC2 | inconclusive: 43.4% |
| CO[C@@H]1CN(C)C(=O)c2ccc(NC(=O)C3CCOCC3)cc2OC[C@@H](C)N(C(C)=O)C[C@H]1C | inactive: 2.41% |
| Nc1n[nH]c(N)c1N=Nc1ccc(Cl)cc1 | active: 52.8% |
| COc1ccc(-c2ccc(C(=O)NCc3ccco3)c3occc23)c(C)c1 | inconclusive: 40.9% |
| Cc1ccccc1NC(=S)c1ccc2ccccc2n1 | active: 70% |
| CN(C)c1ccc(Nc2ccc([N+](=O)[O-])cn2)cc1 | active: 50.5% |
| COC(=O)c1c(-c2ccccc2)c[nH]c1C | active: 51.4% |
| COc1ccc(Nc2ncccc2C(=O)O)cc1 | inconclusive: 54% |
| COc1ccccc1CNC(=O)Cc1ccccc1 | inconclusive: 42.5% |
| COc1cc(C2Nc3cc(Cl)c(S(N)(=O)=O)cc3S(=O)(=O)N2)ccc1OCc1ccccc1 (stereo not given) | inconclusive: 44.2% |
| COc1ccc(C(=O)Nc2ccc(N3CCN(C)CC3)cc2)cc1 | inconclusive: 42.6% |
| COc1ccccc1C(=O)COC(=O)c1ccccc1O | inconclusive: 41.8% |
| Nc1ccc2nc(-c3ccc(N)c(Cl)c3)[nH]c2c1 | inconclusive: 44.1% |
| Cc1ccc(NCCC(=O)c2cccc([N+](=O)[O-])c2)c(C)c1 | inconclusive: 43.5% |
| CCOC(=O)c1cnc(SCCc2ccccc2)nc1N | active: 42.1% |
| COc1ccc(C#Cc2ccc([C@H]3[C@H]4CN(C)CCCCN4[C@H]3CO)cc2)cc1 | inconclusive: 40.2% |
| Oc1ccc(-c2csc(Nc3ccccn3)n2)c(O)c1 | active: 79.9% |
| CC(=O)NC1=NN(C(C)=O)C(c2ccc(C(C)C)cc2)S1 (stereo not given) | inconclusive: 40.2% |
| CCC(C)NC(=O)CCCc1ccccc1 (stereo not given) | inconclusive: 40.1% |
| O=C(Cn1cc(C(=O)C2CC2)c2ccccc21)NCc1ccccc1 | inconclusive: 42.9% |

| SMILES | reporter increase |
| --- | --- |
| O=C(NCc1ccccc1)C(c1cccs1)N(C(=O)c1csnn1)C1CC1 (stereo not given) | inactive: 11% |
| Cc1cc(C(=O)Nc2ccc3c(c2)OCO3)no1 | inconclusive: 42.9% |
| CCN(CC)c1ccc2cc(C(N)=O)c(=O)oc2c1 | inconclusive: 41.9% |
| C[C@@H](CO)NC(=O)c1ccc2c3n(nc2c1)-c1ccc(Cl)cc1CO3 | active: 81.4% |
| CC(C)COC(=O)c1ccc(NC(=O)C2C3C=CC(C3)C2C(=O)O)cc1 (stereo not given) | inconclusive: 40.4% |
| COC(=O)c1sccc1NC(=O)c1ccc(Cl)s1 | inactive: -18.1% |
| Cc1ccc(S(=O)(=O)N2CCCCC2)cc1C(=O)Nc1ccc(N2CCOCC2)cc1 | inconclusive: 46.3% |
| Nn1c(SCc2ccccc2)nnc1-c1ccccn1 | active: 43.3% |
| CCOc1ccc(-c2nnc(NC(=O)Cc3cc(OC)c(OC)c(OC)c3)o2)cc1 | inactive: 7.45% |
| COc1ccccc1OCCSc1nnnn1C1CCCCC1 | inconclusive: 44.3% |
| Cc1ccc2nc(N3C(=O)C(O)=C(C(=O)c4ccc(C)o4)C3c3ccco3)sc2c1 (stereo not given) | inconclusive: 41.5% |
| COc1ccc(Cc2c(-c3cccc(Br)c3)nc3ccc(Cl)cn23)c(C)c1 | active: 57.7% |
| CC(=O)Nc1c(C(=O)Nc2ccc3c(c2)OCO3)oc2ccccc12 | inconclusive: 43.7% |
| CN(C)S(=O)(=O)c1cccc(NC(=S)NC(=O)c2ccco2)c1 | inconclusive: 47.2% |
| C[C@@H]1CCCCO[C@H](CN(C)S(=O)(=O)c2cccs2)[C@@H](C)CN([C@@H](C)CO)C(=O)c2cc(NS(=O)(=O)c3ccc(Cl)cc3)ccc2O1 | inactive: -1.19% |
| COc1ccccc1Cc1c(-c2cccc(Br)c2)nc2ccc(Br)cn12 | inconclusive: 43% |
| COc1ccc(C(=O)N2c3ccccc3C(=O)OC2c2ccc3c(c2)OCO3)cc1 (stereo not given) | inconclusive: 42.3% |
| CN1C[C@H]2[C@@H](c3ccccc31)[C@@H](CO)N2C(=O)c1ccccn1 | inconclusive: 44.2% |
| COc1ccc(S(=O)(=O)N2CCN(C(=O)c3cccs3)CC2)cc1 | inactive: -5.19% |
| Cc1ccc(C(=O)CNc2cccc(Cl)c2)cc1 | inconclusive: 40.6% |
| COCCN(C(=O)COC(=O)/C=C/c1ccc(SC)cc1)c1c(N)n(Cc2ccccc2)c(=O)[nH]c1=O | inactive: 5.26% |
| CNC(C)C#Cc1ccc2oc3cc(C)c(C)cc3c(=O)c2c1 (stereo not given) | inconclusive: 44% |
| CCOc1ccc(Br)cc1C(=O)N/N=C/c1cccnc1 | inactive: -0.805% |

| SMILES | reporter increase |
| --- | --- |
| CCN1C(=O)/C(=C/C=C2/CCCN2C)OC1=S | inconclusive: 40.8% |
| O=C(Nc1cc(Cl)ccc1N1CCOCC1)c1ccc(Br)o1 | inactive: -5.37% |
| Cc1ccc(C(=O)/C=C/Nc2cccc(O)c2)cc1 | inactive: -60.4% |
| O=C(Nc1nc2ccccc2s1)c1ccc(Cl)s1 | inconclusive: 41.6% |
| COCC#Cc1ccc2c(c1)O[C@H](CN(C)S(=O)(=O)c1cccc(F)c1)[C@@H](C)CN([C@H](C)CO)S2(=O)=O | inactive: 6.87% |
| COc1ccc2c(C)cc(N3CCN(Cc4ccccc4)CC3)nc2c1 | inactive: -0.704% |
| Oc1ccccc1-c1nnc(COc2ccccc2)o1 | inconclusive: 42.5% |
| COC(=O)c1ccccc1NC(=O)N1CCc2ccc(NC(=O)c3ccccn3)cc2C1 | inconclusive: 41.3% |
| CN1C[C@@H]2[C@H](c3ccccc31)[C@H](CO)N2C(=O)c1ccccn1 | inconclusive: 40.1% |
| O=C(O)c1cc(N/N=C/c2c[nH]c3ccccc23)ccc1Cl | inconclusive: 43.8% |
| Cn1cccc1/C=N/NC(=O)c1cc2ccccc2cc1O | inconclusive: 41.2% |
| COc1cc(-c2nc3ccccc3s2)ccc1O | inconclusive: 44% |
| Cn1cnc(CCNC(=O)C[C@@H]2CC[C@H]3[C@@H](COC[C@@H](O)CN3C(=O)Nc3ccc(F)cc3)O2)c1 | inactive: 3.62% |
| O=C(Nc1ccc(Cl)cc1)c1ccsn1 | inconclusive: 40.3% |
| CCN1C(=O)/C(=C/N(C)c2ccccc2)OC1=S | inactive: 38.9% |
| COCC(=O)N(C)C[C@H]1Oc2ncc(C#Cc3ccc(OC)cc3)cc2C(=O)N([C@@H](C)CO)C[C@@H]1C | inactive: 3.54% |
| O=C(CSc1ncccn1)c1ccccc1Br | active: 40.9% |
| O=C(C[C@@H]1C=C[C@@H](NC(=O)Cc2ccccn2)[C@H](CO)O1)NCCCN1CCOCC1 | inactive: -0.689% |
| CCCN1CCN(CCCNC(=O)c2ccc3nc(N4CCCCC4)sc3c2)CC1 | active: 77% |
| COc1ccccc1C#Cc1ccc2c(c1)O[C@@H](CN(C)C)[C@H](C)CN([C@@H](C)CO)S2(=O)=O | inactive: -5.52% |
| O=C(Cn1cc(C(F)(F)F)cc(Cl)c1=O)NCc1ccc(F)cc1 | active: 57.6% |
| O=C(Nc1ccc2c(c1)OC1(CCCC1)O2)C1CC1 | active: 41.8% |
| COc1ccccc1NC(=O)N(C)C[C@@H]1Oc2ncc(C#CC(C)C)cc2C(=O)N([C@H](C)CO)C[C@H]1C | inactive: -2.5% |

| SMILES | reporter increase |
| --- | --- |
| CO[C@H]1CN(C)C(=O)c2ccc(NS(=O)(=O)c3ccc(F)cc3)cc2OC[C@H](C)NC[C@H]1C | inactive: -0.205% |
| COc1ccc(-n2c(COc3cccc(C)c3)n[nH]c2=S)cc1 | inactive: -6.97% |
| O=C(Nc1ccc(Br)cc1)Nc1ccccc1F | inconclusive: 71.1% |
| Cn1c(SCc2nc3ccccc3s2)nnc1-c1ccc2c(c1)OCO2 | active: 66.4% |
| CCN(Cc1ccccc1)C(=O)CCc1nnc(CCCc2ccccc2)o1 | inconclusive: 43.5% |
| Cc1cc(NC(=O)NC2(C(F)(F)F)Oc3ccc(Cl)cc3O2)no1 (stereo not given) | inactive: -2.49% |
| CCOC(=O)c1c(C)[nH]c(C(=O)COC(=O)C2CC2)c1C | inconclusive: 41% |
| O=C(Nc1ccccc1)NC1CCCCC1 | active: 46.1% |
| Cc1cccc(NCc2ccc(Br)cc2)n1 | inconclusive: 42.8% |
| C[C@@H]1CN([C@@H](C)CO)C(=O)c2cc(NC(=O)Nc3ccc4c(c3)OCO4)ccc2O[C@H]1CN(C)C(=O)Nc1ccc(C(F)(F)F)cc1 | inconclusive: 44% |
| COc1ccc(C(=O)O/N=C(\N)c2ccc(Cl)cc2)cc1 | inconclusive: 36.9% |
| CCC(=O)Nc1ccc2c(c1)C(=O)N(C)C[C@@H](OC)[C@H](C)CN(Cc1ccncc1)[C@@H](C)CO2 | inactive: -2.56% |
| Cc1ccc(-n2nc3c(=O)n(C(C)C(=O)NCc4ccco4)nc(C)c3c2C)cc1 (stereo not given) | inactive: -4.45% |
| O=C(Nc1ccc(C#Cc2ccccc2)cc1)C1CC1 | inconclusive: 44.8% |
| Cc1ccc(CC(=O)Nc2ccc(Cl)cn2)cc1 | inconclusive: 40.9% |
| CCCCN1CCc2c([nH]c3ccc(C)cc23)C1=O | inconclusive: 45.2% |
| CN1C(=O)c2cc(NC(=O)c3ccc(F)cc3)ccc2OC[C@@H]2O[C@H](CC(=O)O)CC[C@H]21 | inactive: -3.25% |
| COc1ccc(C2Nc3ccccc3C(=O)N2Cc2ccco2)cc1CN1C(=O)c2ccccc2C1=O (stereo not given) | inactive: 1.84% and inactive: 5.38% |
| CCOC(=O)N1CCN(C(=O)CCCOc2ccccc2)CC1 | inconclusive: 44.2% |
| O=C(COc1ccc(Br)cc1CO)Nc1ccccc1 | active: 56.1% |
| Cc1ccc2nc(COC(=O)c3cccnc3Cl)cc(=O)n2c1 | inconclusive: 40.9% |

Source: PubChem BioAssay AID602393 (Broad Institute, 2012)
